Assay results reported in publication PMC8046421.
Results are given in words; binding and its absence hold for the method and conditions named. Binding seen in cells or lysates may run through a third protein. Some results given as binding are weak or reduced against the parent protein; the word gives no strength. Where a sequence is shown, tags or fusion partners need not be part of it.

Amino acid sequences for entries named in this document (tags omitted). Residues count along the entry.
UniProt Q8NE86, residues 51-351: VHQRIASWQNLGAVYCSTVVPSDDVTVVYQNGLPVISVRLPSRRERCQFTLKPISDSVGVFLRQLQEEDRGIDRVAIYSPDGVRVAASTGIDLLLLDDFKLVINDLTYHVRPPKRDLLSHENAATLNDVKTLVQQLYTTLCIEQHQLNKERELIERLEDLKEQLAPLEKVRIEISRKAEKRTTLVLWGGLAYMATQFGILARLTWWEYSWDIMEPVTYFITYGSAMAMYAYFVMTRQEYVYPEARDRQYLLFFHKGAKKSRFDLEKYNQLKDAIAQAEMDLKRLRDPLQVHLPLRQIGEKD

What was measured:
Test in all cases: FRET or BRET; FRET by FLIM in live MCF7 cells; GFP fusion of AURKA (or AURKA ΔNter) as donor, mCherry fusion as acceptor; read-out ΔLifetime; also with DMSO or MG132 (1 μM, 16 h), control or PARK2 siRNA, xanthohumol (AURKA with PHB2), or co-expressed PHB2–6xHis, PHB2 S39A–6xHis or PHB2 S39D–6xHis (AURKA with MAP1LC3B)
PHB2 S39A-mCherry = PHB2 S39A-mCherry (UniProt Q99623)
LAMP1–mCherry = molecular target: T1, LAMP1–mCherry (UniProt P11279)
T1 sequence: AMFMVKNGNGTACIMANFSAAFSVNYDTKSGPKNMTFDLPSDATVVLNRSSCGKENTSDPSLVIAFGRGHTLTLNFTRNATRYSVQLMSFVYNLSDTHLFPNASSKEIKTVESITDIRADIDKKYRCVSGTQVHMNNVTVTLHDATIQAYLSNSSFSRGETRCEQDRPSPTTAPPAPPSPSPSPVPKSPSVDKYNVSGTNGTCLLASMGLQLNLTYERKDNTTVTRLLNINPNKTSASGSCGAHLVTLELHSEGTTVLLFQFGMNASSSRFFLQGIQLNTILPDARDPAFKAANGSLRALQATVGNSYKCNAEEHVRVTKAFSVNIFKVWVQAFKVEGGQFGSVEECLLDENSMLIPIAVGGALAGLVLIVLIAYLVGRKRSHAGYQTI

PHB-mCherry = molecular target: T2, PHB-mCherry (UniProt P35232)
T2 sequence: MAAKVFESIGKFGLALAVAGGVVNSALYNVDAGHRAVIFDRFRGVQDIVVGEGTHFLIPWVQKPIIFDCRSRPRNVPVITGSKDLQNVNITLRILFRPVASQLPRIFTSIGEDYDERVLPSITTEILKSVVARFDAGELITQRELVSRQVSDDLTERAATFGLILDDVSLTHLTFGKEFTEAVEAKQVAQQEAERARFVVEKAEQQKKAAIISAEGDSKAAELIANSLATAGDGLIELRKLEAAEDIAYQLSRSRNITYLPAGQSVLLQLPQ

PHB2 S39D-mCherry = PHB2 S39D-mCherry (UniProt Q99623)
MCU-mCherry = MCU-mCherry (UniProt Q8NE86)
PHB2-mCherry = PHB2-mCherry (UniProt Q99623)

- binding (PHB2 S39A-mCherry): binds
- binding (LAMP1–mCherry): binds
- binding (PHB-mCherry): binds
- binding (PHB2 S39D-mCherry): binds
- binding (MCU-mCherry): no binding
- binding (PHB2-mCherry): binds
B1: AURKA–GFP (enzyme, UniProt O14965 1-403)
chain: MDRSKENCISGPVKATAPVGGPKRVLVTQQFPCQNPLPVNSGQAQRVLCPSNSSQRIPLQAQKLVSSHKPVQNQKQKQLQATSVPHPVSRPLNNTQKSKQPLPSAPENNPEEELASKQKNEESKKRQWALEDFEIGRPLGKGKFGNVYLAREKQSKFILALKVLFKAQLEKAGVEHQLRREVEIQSHLRHPNILRLYGYFHDATRVYLILEYAPLGTVYRELQKLSKFDEQRTATYITELANALSYCHSKRVIHRDIKPENLLLGSAGELKIADFGWSVHAPSSRRTTLCGTLDYLPPEMIEGRMHDEKVDLWSLGVLCYEFLVGKPPFEANTYQETYKRISRVEFTFPDFVTEGARDLISRLLKHNPSQRPMLREVLEHPWITANSSKPSNCQNKESASKQS
